According to patent US20250009801A1 (Innovent, published 2025):

T1: rat CLDN18.1 on CHO-GS cells (rat, UniProt Q5I0E5 1-261)
T1 construct: whole, on cells; also called murine CLDN18.1
T1 sequence (looked up): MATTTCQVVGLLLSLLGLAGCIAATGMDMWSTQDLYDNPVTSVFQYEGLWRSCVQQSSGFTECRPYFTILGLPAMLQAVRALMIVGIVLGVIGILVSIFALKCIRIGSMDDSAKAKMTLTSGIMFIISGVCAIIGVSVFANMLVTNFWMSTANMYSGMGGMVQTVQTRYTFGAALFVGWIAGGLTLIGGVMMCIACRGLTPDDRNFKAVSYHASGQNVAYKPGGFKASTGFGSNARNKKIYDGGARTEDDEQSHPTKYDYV


Tests used:
[1] = molecular target: T2, P329G CAR on P329G CAR-T cells (construct not specified); test: flow cytometry on P329G CAR-T cells
T2 construct: also called P329 CAR; PG CAR; not shown: hinge, transmembrane and intracellular parts

[2] = molecular target: T3, human Claudin18.2-His (Acro, CL2-H5546) (human, UniProt P56856-2 1-261); test: SPR (Biacore T200), Claudin18.2-His coupled on CM5 chip, antibody in the mobile phase (avidity)
T3 construct: Bought reagent, amine-coupled to a CM5 chip; also called recombinant human CLDN18.2 protein; not shown: His tag

[3] = molecular target: T1, rat CLDN18.1 on CHO-GS cells; test: flow cytometry on CHO-GS cells expressing rat CLDN18.1 (EC50)
[4] = molecular target: T4, mouse CLDN18.1 on CHO-GS cells (mouse, UniProt P56857 1-264); test: flow cytometry on CHO-GS cells expressing mouse CLDN18.1 (EC50)
T4 construct: whole, on cells; also called murine CLDN18.1

T2 sequence (chain, as listed by the source P329G P329G P329G P329G): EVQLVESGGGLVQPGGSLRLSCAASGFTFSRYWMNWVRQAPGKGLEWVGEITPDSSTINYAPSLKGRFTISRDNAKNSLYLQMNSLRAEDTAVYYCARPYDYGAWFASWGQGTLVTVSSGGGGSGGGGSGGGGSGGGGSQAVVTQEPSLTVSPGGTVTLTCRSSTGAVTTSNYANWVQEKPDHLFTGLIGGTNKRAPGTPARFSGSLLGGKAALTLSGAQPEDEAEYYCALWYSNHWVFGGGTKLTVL

binding result [1] | Kd [2] [pM] | koff [2] [s⁻¹] | kon [2] [M⁻¹ s⁻¹] | binding result [3] | binding result [4] | Binder
no binding | < 5.04 | < 1e-05 | 1.98e+06 | – | – | HB37A6 antibody, wild-type human IgG1 Fc (antibody, also called WT A6 antibody; A6 WT) heavy: EVQLLDSGGGLVQPGGSLRLSCAASGFTFSSYVMSWVRQAPGKGLNWVSTISHSGGSTYYADSVKGRFTISRDNSKNTLYLQMNSLRAEDTAVYYCAIDAPYYDILTGYRYWGQGTLVTVSS[no letters for human IgG1 constant region] light: not shown
– | < 4.08 | < 1e-05 | 2.45e+06 | binds | binds | HB37A6 PG Ab (P329G mutated HB37A6 antibody, human IgG1) (antibody, also called A6 PG antibody; P329G A6 antibody) heavy: EVQLLDSGGGLVQPGGSLRLSCAASGFTFSSYVMSWVRQAPGKGLNWVSTISHSGGSTYYADSVKGRFTISRDNSKNTLYLQMNSLRAEDTAVYYCAIDAPYYDILTGYRYWGQGTLVTVSS[no letters for human IgG1 constant region with changes] light: not shown
